# Source: PubChem BioAssay (Tox21)
# Where “and” joins values, the source holds several entries; their conditions need not be identical. Equal entries are not always repeated. Inconclusive results, whose numbers are uncertain, are shown with a selection of clear calls. Potencies beside an inconclusive call are fits to weak or partial responses and may not hold up. Calls of active or inactive are those of the source. Unless noted, the call rests on the fitted dose curve; in most records, active means well fitted curve in the direction sought with a large enough effect in the repeat runs; inconclusive means weak or mixed curves; inactive means no such curve, though single readings can be large; an effect the other way counts as inactive or inconclusive.
# What was measured:
# [1] = qHTS assay for small molecules that induce genotoxicity in human embryonic kidney cells expressing luciferase-tagged ATAD5 - cell viability (AID 651634; calls by dose curve; further: nearly all actives have a fitted effect of over 25% in size)
# Procedure, shortened: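 Cells (HEK293T, luciferase-tagged ATAD5) are seeded at 2,000 per well, dosed with compound or DMSO vehicle, and incubated 15.5 hr at 37C and 5% CO2. CellTiter-Fluor is added for 30 min before fluorescence is measured.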
# [2] = qHTS assay for small molecule disruptors of the mitochondrial membrane potential (AID 720635); conditions: HepG2 mitochondrial membrane potential, Mito-MPS dye ratio; ratio activity, negative = MMP loss: at 83.2 µM (top of the series) unless noted; on ratio activity, negative = MMP loss: on the % scale 0 is the no-effect control and ±100 the full control effect
# Procedure, shortened: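 Mitochondrial membrane potential tracked with Mito-MPS dye, red aggregates (ex 540/em 590 nm) against green monomers (ex 490/em 535 nm). Compound treatment 1 hr at 37C, dye 30 min in HepG2.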
# [3] = qHTS assay to test for compound auto fluorescence at 460 nm (blue) in HEK293 cells (AID 720678)
# Procedure, shortened: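 HEK293 cells (2,000/well, medium with 10% dialyzed FBS) attached 4-5 hr, then exposed to compound overnight at 37C, 5% CO2. Blue fluorescence read at 405/460 nm, with triamterene as reference fluorophore.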
# [4] = qHTS assay for small molecule disruptors of the mitochondrial membrane potential - cell viability (AID 720634; calls by dose curve; further: nearly all actives have a fitted effect of over 20% in size)
# Procedure, shortened: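 Cytotoxicity was measured by ATP quantitation in HepG2 wells that had first been treated with compound for 1 hr and stained with m-MPI dye; CellTiter-Glo incubation was 30 min at room temperature.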
# Potency means the concentration at half of the fitted maximal effect; tags describe the fitted curve by direction and shape or compound fluorescence and quenching.
compound,measurement,setting,value
CCC(C)O (stereo unspecified),Potency,[1],inactive
same,Potency,[2],"inconclusive: 5.59 µM [activator, partial curve, poor fit]"
same,Potency,[3],"inconclusive: 63.1 µM [fluorescent, partial curve, poor fit]"
COC(=O)Nc1ccc(Cl)c(Cl)c1,Potency,[4],"inconclusive: 60.8 µM [cytotoxic, partial curve, poor fit]"
same,Potency,[2],active: 60.8 µM
CC1=NN(c2cc(S(=O)(=O)O)ccc2Cl)C(=O)C1N=Nc1ccccc1 (stereo unspecified),Potency,[1],"inconclusive: 27.3 µM [falling, single point]"
same,"ratio activity, negative = MMP loss",[2],inconclusive: -21.1%
Cc1ccncc1,Potency,[4],inactive
same,"ratio activity, negative = MMP loss",[2],inconclusive: 12.1% [at 95.3 µM]
CCC(CC)Nc1ccc(C)c(C)c1,Potency,[4],inactive
O=P(OC(CCl)CCl)(OC(CCl)CCl)OC(CCl)CCl,Potency,[4],"inconclusive: 54.5 µM [cytotoxic, partial curve, poor fit]"
same,Potency,[2],active: 61.1 µM
O=C(O)c1ccc2cc(O)ccc2c1,Potency,[4],inactive
same,Potency,[2],"inconclusive: 67.6 µM [inhibitor, single point]"
CC(=O)OCC(CCn1cnc2cnc(N)nc21)COC(C)=O,Potency,[1],inactive
same,Potency,[2],inactive
C=C[Si]1(C)O[Si](C)(C=C)O[Si](C)(C=C)O[Si](C)(C=C)O1 (stereo unspecified),Potency,[4],"inconclusive: 61.1 µM [cytotoxic, partial curve, poor fit]"
same,"ratio activity, negative = MMP loss",[2],inconclusive: 9.02%
COc1ccc(C(=O)Nc2ccccc2)cc1[N+](=O)[O-],Potency,[4],"inconclusive: 48.9 µM [cytotoxic, partial curve]"
same,Potency,[2],active: 2.75 µM
CC(=O)C(C)C,Potency,[4],inactive
same,"ratio activity, negative = MMP loss",[2],inconclusive: 13.4% [at 95.3 µM]
Cc1ccc2c(c1)OCC(=O)CO2,Potency,[4],inactive
COc1cc(N)ccc1C,Potency,[1],"inconclusive: 42.8 µM [falling, partial curve]"
same,Potency,[2],inactive
O=S(=O)(Oc1ccc(Cl)cc1)c1ccccc1,Potency,[4],"inconclusive: 54.5 µM [cytotoxic, partial curve]"
same,Potency,[2],active: 19.3 µM
O=C(O)C(=O)O,Potency,[4],inactive
same,"ratio activity, negative = MMP loss",[2],inconclusive: 27.2% [at 8.08 µM]
CC1CCN(CCCC(=O)c2ccc(F)cc2)CC1,Potency,[4],inactive
CC1(C)[C@@H]2CC[C@]3(C2)[C@@H]1C(=O)CCC3(C)C,Potency,[1],inactive
same,Potency,[2],inactive
Cc1cccc(NC(=S)N(C)C)c1,Potency,[4],inactive
same,Potency,[2],"inconclusive: 1.54 µM [inhibitor, full curve, poor fit]"
CCCCOc1ccc(N)cc1,Potency,[4],inactive
same,"ratio activity, negative = MMP loss",[2],inconclusive: -23.9%
Cc1cc(O)c2c(O)c3c(O)cccc3cc2c1,Potency,[4],"inconclusive: 13.3 µM [cytotoxic, partial curve, poor fit]"
same,Potency,[2],active: 18.8 µM
O=c1[nH]c(=O)c2cn[nH]c2[nH]1,Potency,[4],inactive
same,"ratio activity, negative = MMP loss",[2],inconclusive: 36.4%
O=C(O)Cc1sc(-c2ccccc2)nc1-c1ccc(Cl)cc1,Potency,[1],"inconclusive: 23.7 µM [falling, partial curve, poor fit]"
same,Potency,[2],active: 24.8 µM and active: 23.7 µM and active: 26.6 µM
CN(C)C/C=C(/c1ccc(Br)cc1)c1cccnc1,Potency,[3],"inconclusive: 6.31 µM [fluorescent, partial curve, poor fit]"
Cc1cccc2ccccc12,Potency,[2],"inactive and inconclusive: 30.6 µM [activator, partial curve, poor fit]"
CC(=O)/C=C/C1C(C)=CCC(C)C1(C)C (stereo unspecified),Potency,[2],inactive
O=C(O)c1ccccc1-c1ccc(C(F)(F)F)cc1,"ratio activity, negative = MMP loss",[2],inconclusive: 7.81%
CC1CCC2CC1C2(C)C (stereo unspecified),Potency,[2],inactive
COC(=O)C(C)(C)C,Potency,[2],inactive
OCc1c2ccccc2cc2ccccc12,Potency,[2],active: 30.7 µM
CC(=O)OCC(=O)[C@H]1CC[C@H]2[C@@H]3CCC4=CC(=O)CC[C@]4(C)[C@H]3CC[C@]12C,Potency,[2],inactive
SCCOCCOCCS,"ratio activity, negative = MMP loss",[2],inconclusive: 20.8%
